Experimental data: publication PMC5108325
Positions count from the first letter of the chain named. Where two headings read alike, the source gives them in different places. Results are given in words; binding and its absence hold for the method and conditions named. In cells and extracts the contact can be indirect. Some binding calls cover weakened binding; strength is not graded here. For some assays here: Where a sequence is shown, tags or fusion partners need not be part of it. Values belong to the molecule of their own block, whether it stands above or below them.

Protein sequences, listed by entry. Tags and fused reporters are not part of them.
UniProt Q5SQI0: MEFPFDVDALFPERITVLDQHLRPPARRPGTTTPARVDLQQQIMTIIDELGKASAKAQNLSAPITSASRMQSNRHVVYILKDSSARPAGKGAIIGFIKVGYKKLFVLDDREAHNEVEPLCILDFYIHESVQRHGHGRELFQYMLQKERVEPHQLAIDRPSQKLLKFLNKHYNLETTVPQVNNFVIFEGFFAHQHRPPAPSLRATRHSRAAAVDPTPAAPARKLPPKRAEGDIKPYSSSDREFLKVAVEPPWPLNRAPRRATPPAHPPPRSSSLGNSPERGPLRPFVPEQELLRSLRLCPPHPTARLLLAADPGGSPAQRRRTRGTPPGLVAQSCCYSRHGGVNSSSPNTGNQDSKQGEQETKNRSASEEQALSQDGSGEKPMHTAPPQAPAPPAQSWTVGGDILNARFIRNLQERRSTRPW
UniProt Q9UBN7: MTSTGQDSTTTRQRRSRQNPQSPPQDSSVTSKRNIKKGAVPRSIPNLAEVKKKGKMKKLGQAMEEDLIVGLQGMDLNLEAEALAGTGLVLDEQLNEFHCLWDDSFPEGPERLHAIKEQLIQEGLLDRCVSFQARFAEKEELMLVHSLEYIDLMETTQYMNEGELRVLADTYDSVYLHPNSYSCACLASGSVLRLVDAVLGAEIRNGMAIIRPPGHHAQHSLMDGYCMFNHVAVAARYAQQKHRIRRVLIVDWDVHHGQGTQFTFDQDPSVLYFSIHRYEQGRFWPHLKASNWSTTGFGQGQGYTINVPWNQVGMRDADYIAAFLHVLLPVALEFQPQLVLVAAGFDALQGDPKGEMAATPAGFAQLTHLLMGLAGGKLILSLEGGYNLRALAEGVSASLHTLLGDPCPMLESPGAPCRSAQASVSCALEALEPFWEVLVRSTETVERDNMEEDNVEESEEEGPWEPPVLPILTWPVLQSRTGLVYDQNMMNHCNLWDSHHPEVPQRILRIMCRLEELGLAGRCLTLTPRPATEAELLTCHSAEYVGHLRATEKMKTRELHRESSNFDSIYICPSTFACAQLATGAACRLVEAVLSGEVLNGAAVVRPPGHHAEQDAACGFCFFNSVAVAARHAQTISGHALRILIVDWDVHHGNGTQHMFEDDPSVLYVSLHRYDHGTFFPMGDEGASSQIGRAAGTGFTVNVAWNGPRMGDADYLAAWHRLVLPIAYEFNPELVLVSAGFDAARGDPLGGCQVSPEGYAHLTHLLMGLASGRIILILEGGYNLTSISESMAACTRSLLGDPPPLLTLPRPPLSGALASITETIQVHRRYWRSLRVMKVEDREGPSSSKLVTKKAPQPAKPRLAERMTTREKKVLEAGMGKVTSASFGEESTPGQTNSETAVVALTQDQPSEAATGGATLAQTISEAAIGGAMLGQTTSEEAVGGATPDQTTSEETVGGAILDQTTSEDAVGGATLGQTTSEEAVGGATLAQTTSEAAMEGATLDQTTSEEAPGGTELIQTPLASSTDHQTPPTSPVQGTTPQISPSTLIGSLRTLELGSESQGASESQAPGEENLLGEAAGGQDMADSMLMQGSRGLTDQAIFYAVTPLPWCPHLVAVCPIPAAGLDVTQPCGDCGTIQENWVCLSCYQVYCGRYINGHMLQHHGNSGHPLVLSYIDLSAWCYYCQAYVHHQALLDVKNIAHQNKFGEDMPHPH

Columns and labels:
[1] = molecular target: T1, BEX4 (endogenous, U2OS) (human (endogenous in U2OS)) (UniProt Q9NWD9); experiment: co-IP; U2OS cell lysates immunoprecipitated with anti-BEX4 antibody and immunoblotted
T1 sequence: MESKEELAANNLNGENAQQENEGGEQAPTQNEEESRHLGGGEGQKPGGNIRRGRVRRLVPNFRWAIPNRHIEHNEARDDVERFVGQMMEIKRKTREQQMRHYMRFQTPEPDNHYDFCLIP

[2] = molecular target: T2, TAP-tagged BEX4 (U2OS) (human) (UniProt Q9NWD9); experiment: pull-down; lysates of U2OS cells transfected with TAP or TAP-BEX4 incubated with streptavidin beads; bound proteins immunoblotted
T2 sequence: T1 sequence

[3] = molecular target: T3, GST-BEX4 (full-length; FL) (human) (UniProt Q9NWD9); experiment: pull-down; U2OS cell extracts incubated with beads bound to GST, GST-BEX4 (FL) or GST-BEX4 N, M, C; bound proteins immunoblotted; only the target purified
T3 sequence: T1 sequence

[4] = molecular target: T3, GST-BEX4 (full-length; FL) (human); experiment: as above; remark: listed apart in the source
[5] = molecular target: T4, GST-BEX4 C-terminal (C; 61 ~120 a.a) (human) (UniProt Q9NWD9); experiment: as above
T4 sequence: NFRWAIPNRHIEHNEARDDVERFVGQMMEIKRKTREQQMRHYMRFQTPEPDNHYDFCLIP

[6] = molecular target: T5, GST-BEX4 N-terminal (N; 1~60 a.a) (human) (UniProt Q9NWD9); experiment: as above
T5 sequence: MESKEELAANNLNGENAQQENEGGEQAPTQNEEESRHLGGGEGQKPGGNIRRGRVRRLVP

[7] = molecular target: T6, GST-BEX4 middle (M; 31~90 a.a) (human) (UniProt Q9NWD9); experiment: as above
T6 sequence: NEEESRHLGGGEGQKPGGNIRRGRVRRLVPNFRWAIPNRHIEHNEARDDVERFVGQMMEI

GST-SIRT2 H187Y mutant = molecular target: T7, GST-SIRT2 H187Y mutant (UniProt Q8IXJ6); experiment: pull-down; purified GST, GST-SIRT2 (WT) or GST-SIRT2 H187Y incubated with U2OS cell extracts and pulled down with beads; bound proteins immunoblotted; only the target purified
T7 sequence: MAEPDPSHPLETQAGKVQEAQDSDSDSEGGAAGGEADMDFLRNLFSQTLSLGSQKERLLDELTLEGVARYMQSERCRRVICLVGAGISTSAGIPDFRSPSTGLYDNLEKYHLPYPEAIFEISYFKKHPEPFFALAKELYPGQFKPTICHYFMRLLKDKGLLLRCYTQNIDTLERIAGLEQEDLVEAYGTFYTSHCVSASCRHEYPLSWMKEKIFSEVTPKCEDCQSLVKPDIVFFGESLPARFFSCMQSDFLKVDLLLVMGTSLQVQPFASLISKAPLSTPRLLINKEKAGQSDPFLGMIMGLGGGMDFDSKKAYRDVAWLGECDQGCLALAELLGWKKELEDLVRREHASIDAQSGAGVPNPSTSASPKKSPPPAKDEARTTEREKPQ

GST-SIRT2 wild type (WT) = molecular target: T8, GST-SIRT2 wild type (WT) (UniProt Q8IXJ6); experiment: as above
T8 sequence: T7 sequence with Y187H

binding [1]: no binding
binding [2]: no binding
binding [3]: no binding
Molecule: alpha tubulin acetyltransferase 1 (endogenous, U2OS) (from UniProt Q5SQI0 1-421) (enzyme)

binding (GST-SIRT2 H187Y mutant): no binding
binding (GST-SIRT2 wild type (WT)): binds
B2: BEX4 (endogenous, U2OS) (protein, UniProt Q9NWD9 1-120)
chain: T1 sequence

Further lines, the molecule ahead of its results:

Molecule: histone deacetylase 6 (endogenous, U2OS) (from UniProt Q9UBN7 1-1215) (enzyme)
binding [1]: no binding
binding [2]: no binding
binding [3]: no binding

B1: sirtuin 2 (endogenous, U2OS) (enzyme, UniProt Q8IXJ6 1-389)
chain: T7 sequence with Y187H
binding [1]: binds
binding [2]: binds
binding [4]: binds
binding [5]: no binding
binding [6]: no binding
binding [7]: binds
